The other results are listed elsewhere or left out. At the low end of the ranking the order means little.
Each sequence was assayed against SIX1-Q177R homeodomain (UniProt Q15475) (assay: universal protein binding microarray). Settings: Universal all-10-mer PBM (8x60K, AMADID 030236), 300 nM GST-tagged protein, Alexa Fluor 488 anti-GST; buffer, salt, pH and temperature not stated; high values mean tight binding; most listed sequences are background and not binding sites; double strand, one strand shown.

Sequence	binding signal [E-score]
AGCTTGAT	-0.126
CGATCGAA	-0.0295
AACTGACC	-0.0459
AAAAAAAT	-0.266
CTATCCGC	-0.171
AGCCAGTC	0.018
GAGTGTCC	0.406
AGGTACCT	0.129
CATGCCTA	-0.274
ACCATGCC	0.0501
CTACTGTA	0.137
CAATAGTG	0.17
GGGGGGAC	-0.0437
CAGTTTCC	-0.102
CAACCTGG	0.0935
ACTGAACA	0.0692
GACTAATA	-0.137
AGTTATCA	-0.187
AATAGCCG	-0.0922
ACCTCCTA	0.149
AAACATCC	-0.0426
CGAGGTAC	0.0579

Sequence	binding signal [E-score]
CCGGGACA	0.104
ATACTTCG	-0.0819
AATGGGAC	-0.256
AAGGAATT	-0.277
AATTTCGT	-0.159
AGTATATC	-0.132
GAGAAACA	0.0411
GCGACGCA	0.0242
TCGTCCCA	-0.168
CAAACTTC	-0.214
TCGGAAAA	-0.113
AGTCCATC	-0.117
GTCAATAA	-0.0584
ATGACGTA	-0.0851
AATATCGC	-0.322
CTCCAATA	-0.17
GACTTTAA	-0.235
ATGCCCAA	-0.205
AACGACAC	0.447
CACGCGAA	0.0834
CCATATGC	-0.0273
TGGAGAAA	-0.208

Sequence	binding signal [E-score]
AGCCTGTA	-0.0447
CTGGGATA	0.0215
TATGTCGA	-0.267
CGCCGAAG	-0.113
ATTGCGGC	-0.121
CCGTTACG	0.00018
CTTGGAAC	-0.127
ACCGTAAT	-0.136
GATGTCTA	-0.158
AGGGATTA	-0.0304
GCCCAAAC	0.0628
CAGGGCGG	-0.0444
GTGCGCCA	0.148
GAAGGACA	0.176
ATTTAGTC	-0.0571
TGTTTCAA	-0.00756
CAGGTTGG	0.00023
GCCGCAGC	-0.17
ACATGACA	0.179
CGATGATA	0.039
GATAAGGC	-0.0639
CGAACACG	0.356

Sequence	binding signal [E-score]
TAGCGTAA	-0.00532
AGCCCCCG	0.0315
GGTGAAGA	0.0135
GTCCTCCA	0.125
ATAACGTA	-0.137
GACGACCA	-0.0548
ACTAAGAG	0.0429
AGTCACTC	0.0396
AGGTTTCG	-0.102
CCCAACGC	0.0779
ACTATCTA	-0.0674
TCCCATCA	-0.0202
CACCACAC	0.426
TGAATTAA	-0.165
AGACGTCT	-0.293
AGCTTTTG	-0.262
CGGCTTAC	-0.0076
AAGTAGGA	0.0702
TCCACCAA	0.0144
ATAGCGAG	-0.088
CGGGAGTC	0.232
CCCATTTA	0.0242

Sequence	binding signal [E-score]
CTGTCGTC	-0.163
AACCTGGA	0.0671
ACTATAAA	-0.0995
TACCAAGA	-0.0432
CTTGGGTC	-0.0354
AGATTATC	-0.254
CTCTCGGC	-0.0693
CTAGAACA	0.101
CAATGTTC	-0.261
GACTACAC	0.428
GCCTCTCC	-0.0627
ACCCTTGC	0.141
ATCATGTC	0.147
AGTGGCTG	-0.251
GCAGTCAA	-0.348
TATTATCA	-0.12
AGATGCGG	-0.0318
AGCGAGGA	-0.0976
GTTTCGGA	-0.0967
CATCACTA	-0.0786
AACATGCG	-0.26
